Measured values from article PMC4336329 (PLoS ONE, 2015).
Screen size: about 310,000 compounds; about 14,000 (4.5%) showed an effect of 50% or more. Effects have a minus sign here. Some of the results follow.

Biological target: human ether-à-go-go-related gene (hERG) potassium channel (human, UniProt Q12809)
Test: primary screen, population patch clamp on CHO cells stably expressing hERG
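Further: peak tail current of the secondary pulse compared with the same well before compound.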

Sequence of human ether-à-go-go-related gene (hERG) potassium channel (Q12809 whole entry, looked up): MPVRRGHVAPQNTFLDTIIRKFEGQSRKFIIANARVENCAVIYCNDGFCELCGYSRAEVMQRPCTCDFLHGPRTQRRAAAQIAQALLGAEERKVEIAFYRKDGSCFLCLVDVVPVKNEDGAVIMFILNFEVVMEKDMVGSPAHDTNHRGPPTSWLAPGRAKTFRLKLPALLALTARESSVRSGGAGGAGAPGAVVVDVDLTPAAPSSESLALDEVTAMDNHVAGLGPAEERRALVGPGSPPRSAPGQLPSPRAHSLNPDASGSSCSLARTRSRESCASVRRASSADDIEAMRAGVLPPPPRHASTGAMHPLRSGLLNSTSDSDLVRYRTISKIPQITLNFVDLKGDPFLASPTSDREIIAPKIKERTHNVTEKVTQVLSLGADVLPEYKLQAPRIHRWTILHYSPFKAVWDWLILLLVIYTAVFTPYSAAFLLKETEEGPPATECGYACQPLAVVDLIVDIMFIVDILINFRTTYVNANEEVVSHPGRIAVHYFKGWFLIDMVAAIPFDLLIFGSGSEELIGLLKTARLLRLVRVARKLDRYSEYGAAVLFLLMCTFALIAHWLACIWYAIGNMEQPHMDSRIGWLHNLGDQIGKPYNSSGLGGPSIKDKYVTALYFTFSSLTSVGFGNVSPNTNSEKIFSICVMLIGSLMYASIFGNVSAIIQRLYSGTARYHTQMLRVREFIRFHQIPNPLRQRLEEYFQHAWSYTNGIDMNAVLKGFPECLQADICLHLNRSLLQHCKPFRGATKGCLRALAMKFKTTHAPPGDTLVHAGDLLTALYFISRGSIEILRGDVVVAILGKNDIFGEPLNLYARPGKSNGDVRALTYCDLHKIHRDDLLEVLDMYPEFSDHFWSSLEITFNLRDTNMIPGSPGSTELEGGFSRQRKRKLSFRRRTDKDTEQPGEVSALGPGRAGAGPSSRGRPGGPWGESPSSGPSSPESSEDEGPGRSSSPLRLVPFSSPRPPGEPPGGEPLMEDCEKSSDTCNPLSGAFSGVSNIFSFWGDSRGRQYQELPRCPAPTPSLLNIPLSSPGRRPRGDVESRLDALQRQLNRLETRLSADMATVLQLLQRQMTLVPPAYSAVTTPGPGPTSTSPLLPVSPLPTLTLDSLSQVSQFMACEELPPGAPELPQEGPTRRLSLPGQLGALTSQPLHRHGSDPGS

| Compound | hERG current change (%, negative = inhibition) at 10uM [%] |
| --- | --- |
| O=C(CSc1nc2cc(S(=O)(=O)N3CCOCC3)ccc2o1)NC1CCCc2ccccc21 (centres unmarked) | -4.26 |
| COc1ccc(CNC(=O)CS(=O)CC(=O)O)cc1OC (centres unmarked) | 12.9 |
| CC(=O)Oc1ccc(N2C(=O)C3C(C2=O)C2C=CC3C23CC3)cc1[N+](=O)[O-] (centres unmarked) | 17.5 |
| CCc1cccc(NS(=O)(=O)c2ccc3c(c2)CCC(=O)N3)c1 | -11.1 |
| CCOc1cc(C(=O)OC(C)C(=O)Nc2ccc(S(N)(=O)=O)cc2)ccc1OCC(=O)N1CCOCC1 (centres unmarked) | -5.65 |
| O=c1[nH]cnc2sc(-c3ccccc3)cc12 | -1.05 |
| Cc1ccc(-c2c(NC(=O)C(C)C)n(C)c3ccccc3c2=O)cc1 | 7.05 |
| COc1cccc(CC(=O)Nn2c(C)nc3ccccc3c2=O)c1 | -12.9 |
| COC(=O)c1cccc(S(=O)(=O)N2CCC(NC(=O)Nc3cccc(F)c3)CC2)c1 | -5.11 |
| O=C1c2ccccc2S(=O)(=O)c2cc(C(=O)N3CCC(N4CCCC4)CC3)ccc21 | -12.5 |
| O=C(N/N=C/c1cc([N+](=O)[O-])ccc1O)NC12CC3CC(CC(C3)C1)C2 | 0.588 |
| CCOC(=O)c1cc[nH]c1CC(=O)NC | 6.13 |
| COc1cccc(NC(=O)CN(C)C(=O)c2ccc(N3CCOCC3)c([N+](=O)[O-])c2)c1 | -37.6 |
| CC(=O)Nc1ccc(NC(=O)c2c(C)nc3ccccn23)cc1 | 15.1 |
| Cc1ccc(N2N=C(c3ccc(F)cc3)CC2c2ccco2)cc1 (centres unmarked) | 34.1 |
| Cc1c(NS(=O)(=O)c2cc(C(=O)OCC(=O)N3CCC(C)CC3)ccc2Cl)c(=O)n(-c2ccccc2)n1C | -1.58 |
| O=C(N/N=C/c1ccccn1)c1ccc(NC(=O)c2ccc(F)cc2)cc1 | -16.6 |
| O=C(NCCC1CC1(Cl)Cl)Nc1ccccc1 (centres unmarked) | -1.02 |
| Cc1ccc2cccnc2c1NC(=S)NC(=O)c1ccccc1 | 17 |
| COc1ccc(NC(=S)NCCC2=CCCCC2)cc1OC | 23.9 |
| CS(=O)(=O)c1cccc(C(=O)NCc2ccc(F)cc2)c1 | 0.5 |
| O=C(COc1ccccc1)NCC1CCCO1 (centres unmarked) | 9.35 |

| Compound | hERG current change (%, negative = inhibition) at 10uM [%] |
| --- | --- |
| O=C(Cc1cccs1)NCc1cccc(C(F)(F)F)c1 | 7.33 |
| Cc1cccc(C(=O)NC(=S)N2CCN(C(=S)NC(=O)c3cccc(C)c3)CC2)c1 | -0.873 |
| Cc1cc(=O)oc2cc(N)ccc12 | -9.36 |
| N#C/C(=C\c1cccs1)C(=O)NCc1cccnc1 | -17.4 |
| Cc1cccc(-n2c(Cc3ccccc3)nnc2SCC(=O)N2CCOCC2)c1 | -1.12 |
| CCOc1ccc(OCC(=O)N2CCC3(CC2)CC(=O)c2ccccc2O3)cc1 | -94.6 |
| COc1ccc(OC)c(NC(=O)C(CC(C)C)NC(=O)C2CCCCC2)c1 (centres unmarked) | -11.3 |
| Cl.O=C(NCC(c1cccs1)N1CCOCC1)c1ccccc1NS(=O)(=O)c1cc([N+](=O)[O-])ccc1Cl (centres unmarked) | -8.83 |
| CCc1sc(C(=O)NC2CCN(C)CC2)cc1Br | -7.34 |
| Cc1cnc(=O)[nH]c1SCC(=O)c1ccc(F)cc1 | 12.1 |
| O=C(NCCNc1ccc([N+](=O)[O-])cc1C(F)(F)F)c1ccccc1F | -33.9 |
| CC(=O)N1CCN(CCN2C(C)=CC(=C(C#N)C#N)C=C2C)CC1 | -3.8 |
| Cn1c(SCC(=O)Nc2ccc(F)cc2)nnc1C1CC1 | 4.27 |
| CSc1ncccc1C(=O)NCCc1ccc(Cl)cc1 | 2.23 |
| Cc1nnc(SCC(=O)N(C)C2CCCCC2)n1C | -1.56 |
| CCOC(=O)C1(Cc2ccccc2C(F)(F)F)CCN(C2CCSC2)CC1 (centres unmarked) | -25.2 |
| CC(=O)c1c(C)[nH]c(C(=O)NCc2ccccc2)c1C | -3.31 |
| CC1CC(Nc2ccccc2N)=CC(=O)O1 (centres unmarked) | 11.7 |
| O=C(Cc1c(F)cccc1Cl)NCCN1CCOCC1 | 13 |
| CCC(C)NC(=O)C(Sc1ccccc1)c1ccccc1 (centres unmarked) | 13.6 |
| Cc1cccc(NC(=O)CS(=O)(=O)c2cn(CC(=O)N3CCOCC3)c3ccccc23)c1 | -0.24 |
| CCCCC(=O)Nc1ccc(Br)cc1C(=O)O | 9.15 |

| Compound | hERG current change (%, negative = inhibition) at 10uM [%] |
| --- | --- |
| COc1ccc(N(CCC#N)S(=O)(=O)c2ccc(Cl)cc2)cc1 | -4.21 |
| CC(C)C(CO)N1CCN(Cc2ccccc2)CCC1=O (centres unmarked) | 4.74 |
| CC1(C2CC2)NC(=O)N(CC(=O)N2CCN(c3ccccc3)CC2)C1=O (centres unmarked) | 1.38 |
| COc1ccc(S(=O)(=O)N2CCCCCC2)cc1C(=O)N(C)Cc1ccco1 | -24.4 |
| CCC(=NCc1ccco1)c1c(O)n(C2CCCCC2)c(=O)[nH]c1=O | -17.3 |
| COc1ccc(-c2nn(CCC#N)cc2C(=O)Nc2cccc(C(=O)O)c2)cc1[N+](=O)[O-] | 13.6 |
| CCN1C(=O)C(=O)N(CC(=O)Nc2cc(C)ccc2C)C1=O | -6 |
| O=S(=O)(N/N=C\c1ccc2c(c1)OCO2)c1ccc(Cl)cc1 | -7.94 |
| Oc1ccc(C(=S)N2CCCCC2)cc1 | 12.8 |
| CC(C)(C)c1ccc(/C=N/OCC(=O)NCc2ccccc2)cc1 | -16.5 |
| C/C(=N\NC(=O)c1cc(-c2cccnc2)nc2ccccc12)c1ccc(O)cc1O | 1.5 |
| Cn1nnnc1SCc1ccccc1[N+](=O)[O-] | -1.75 |
| COC(=O)c1c(C)[nH]c(C(=O)C(C)OC(=O)C2CC(=O)N(CCc3ccccc3)C2)c1C (centres unmarked) | -8.06 |
| CN(C)CCNC(=O)/C(=C/c1cccc([N+](=O)[O-])c1)NC(=O)c1ccccc1 | -66.9 |
| Cc1ccc(NC(=O)c2ccc(S(=O)(=O)N3CCCCC3)cc2)nc1 | -5.04 |
| O=C(NC(=S)Nc1ccccn1)c1cc(-c2ccccc2)nc2ccccc12 | 14.5 |
| C[N+]12CCC(CC1)C(C(O)(c1ccccc1)c1cccs1)C2.[I-] (centres unmarked) | 5.66 |
| Cc1ccc2nsnc2c1NC(=O)Cc1ccc(Cl)cc1 | 13.5 |
| O=C(Nc1ccc(SC(F)F)cc1)c1ccc2c(=O)n3c(nc2c1)CCC3 | -22.9 |
| CS(=O)(=O)N(CC(=O)NCCSCc1cccc(Cl)c1)c1ccc(F)cc1 | -30.2 |
| Cc1ccc(CC2SC(=O)NC2=O)cc1Cl (centres unmarked) | 4.36 |
| CN(C)S(=O)(=O)c1ccc(C(=O)OCc2ccc([N+](=O)[O-])cc2)cc1 | 17.6 |

| Compound | hERG current change (%, negative = inhibition) at 10uM [%] |
| --- | --- |
| O=C(Cc1ccc(Br)cc1)Nc1cccc(Cl)c1 | 5.03 |
| COc1cc(/C=C/C(=O)OCC(=O)N2CCC(Cc3ccccc3)CC2)ccc1O | -1.08 |
| Cc1ccc(CNC(=O)CCC(=O)N2CC(C)Oc3ccc(Cl)cc32)cc1 (centres unmarked) | -43.1 |
| COc1ccccc1N1CCN(C(=O)CCc2ccc(S(=O)(=O)NC(C)C)cc2)CC1 | 0.143 |
| CCN(c1ccccc1)S(=O)(=O)c1ccc(Cl)c(NC(=O)COC(=O)c2cccc(OC)c2O)c1 | -3.62 |
| CC1(C)CC(=O)C(CC2=C(O)CC(C)(C)CC2=O)=C(O)C1 | -0.604 |
| CCCCN(C(=O)CSc1n[nH]c(-c2ccc(C)cc2)n1)c1c(N)n(CCCC)c(=O)[nH]c1=O | 5.4 |
| COc1ccc(-c2c(C)nn3c(N4CCC5(CC4)OCCO5)cc(C)nc23)cc1OC | 16.5 |
| Cc1ccc(NS(=O)(=O)c2ccc(NC(=O)C(C)Sc3ccc(Cl)cc3)cc2)c(C)c1 (centres unmarked) | 0.496 |
| CCCCN1C(=O)C(NC(C)=O)c2ccccc21 (centres unmarked) | 7 |
| Cc1ccc([C@@H]2[C@@H]3C(=O)N(c4ccccc4)C(=O)[C@@H]3[C@]3(C)C(=O)N(Cc4ccccc4)CC(=O)N23)o1 | 9.04 |
| CC(C)S(=O)(=O)c1nsc2nc(=O)c(/C=C3\C=Nc4ccccc43)c(N)n12 | 13.6 |
| O=C(OCC(=O)c1ccc([N+](=O)[O-])cc1)/C(=C\c1ccc(Cl)cc1)NC(=O)c1ccccc1 | -64.4 |
| COc1ccc(C(=O)NCCc2nnc3ccc(SCC(=O)Nc4ccccc4F)nn23)cc1 | -12.6 |
| Cc1cc(Oc2ccc(OCC(N)=O)nn2)nc(Cl)n1 | 7.6 |
| O=C(Nc1ccc(F)cc1)N1CCN(c2ncccn2)CC1 | -2.77 |
| Cc1ccc(CN(C)C(=O)CN2C(=O)NC3(CCCc4ccccc43)C2=O)c(C)c1 (centres unmarked) | -35.4 |
| N#C/C(=C(/O)CN1CCCCC1)c1nc(-c2ccc(Cl)cc2)cs1 | -1.62 |
| CCC(C)[C@H](NC(=O)N1CCn2c1nc1ccccc12)C(=O)NCc1ccc(OC)cc1 (some centres unmarked) | 0.965 |
| Cn1c(=O)c2c(nc(SCC(=O)NCc3ccc4c(c3)OCO4)n2Cc2ccc(F)cc2)n(C)c1=O | -63.1 |
